# Laboratory results published in the supplement of paper PMC12217912.
# The other results are listed elsewhere or left out. The full chains were built here from the parent and the listed change. Inactive controls read about 0.05.
# B1: TEV protease; numbered along this chain (parent)
# chain: MGESLFKGPRDYNPISSSICHLTNESDGHTTSLYGIGFGPFIITNKHLFRRNNGTLVVQSLHGVFKVKDTTTLQQHLVDGRDMIIIRMPKDFPPFPQKLKFREPQREERICLVTTNFQTKSMSSMVSDTSCTFPSGDGIFWKHWIQTKDGQCGSPLVSTRDGFIVGIHSASNFTNTNNYFTSVPKNFMELLTNQEAQQWVSGWRLNADSVLWGGHKVFMVKPEEPFQPVKEATQL
# Variants of: B1
# Test: raw area under fraction-flipped curve 0-4 h after induction (AUC4h, not background-subtracted), DNA-recorder readout of cleavage of the substrate (dimensionless); higher = more cleavage of the substrate by the protease variant
# Conditions: temperature: 34 °C; time window: 0-4 h after rhamnose induction
# 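Further: Bxb1 expression induced with 0.2% (w/v) L-rhamnose at OD600 near 0.5, cultures sampled hourly, flipped fraction per protease–substrate barcode pair counted by paired-end Illumina sequencing.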
Variant,area with substrate ECLYFQS,area with substrate EGLYFQS,area with substrate EKLYFQS,area with substrate EQLYFQS,area with substrate ERLYFQS,area with substrate ESLYFQS,area with substrate EVLYFQS,area with substrate EELYFQS,area with substrate EHLYFQS,area with substrate EILYFQS,area with substrate ELLYFQS,area with substrate EMLYFQS,area with substrate EPLYFQS,area with substrate ETLYFQS,area with substrate EYLYFQS,area with substrate EDLYFQS,area with substrate EWLYFQS,area with substrate EFLYFQS
Y179K,0.066,0.0583,0.0501,0.0596,0.0668,0.0569,0.061,,,,,,,,,,,
Q198C,0.104,0.0978,0.101,0.129,0.0779,0.111,0.0966,0.104,0.127,0.0947,0.0947,0.118,0.0975,0.104,0.0992,,,
Q198R,0.111,,0.125,0.139,0.121,0.11,,0.111,0.136,0.139,,0.0969,0.0125,0.0895,0.123,0.11,0.092,
Q198E,0.124,0.119,0.123,0.126,0.0975,0.122,0.108,0.136,0.155,0.104,,0.122,,,,0.14,0.0988,0.118
Q198D,0.108,,,0.127,0.108,0.0744,0.0698,0.102,0.142,0.089,0.0899,0.0957,0.178,0.0978,0.1,,0.097,0.0929
F173M,0.112,,0.111,,0.0935,,,,0.126,0.155,,0.13,,,,0.12,0.121,
P184M,0.0832,,,0.0727,0.0691,0.0497,0.0717,,,0.0556,0.0694,0.0792,0.0499,0.0899,,0.0932,,0.0859
A196K,0.104,0.0938,0.11,,0.0452,0.11,0.103,0.151,,0.0943,0.103,0.117,0.108,,,0.137,0.0916,
A196E,0.125,0.0799,0.109,0.113,0.0918,0.104,0.0969,0.133,,0.111,0.0915,0.132,0.169,,0.118,0.127,0.0987,
V217D,0.0575,,0.0411,,0.06,0.0685,,0.0657,0.0679,0.0573,0.0791,0.0634,0.056,,,0.0689,,0.0549
T174P,0.105,0.0679,,0.0663,0.0686,0.0768,,0.115,0.0765,0.0733,,,,,,0.0951,,
G214Y,0.0642,,0.0833,,,0.0759,,0.0838,,0.0796,,,0.0922,,0.0732,,,
V200M,0.087,0.0716,,,0.0469,0.0694,,0.109,0.0805,0.0649,0.0746,0.0988,,0.0618,0.0905,0.0855,0.0713,
L190H,0.0976,0.114,,,,0.0934,0.0903,0.0777,,0.0699,0.0982,0.114,,0.0891,0.117,,0.0987,
